# Test results: PubChem BioAssay AID651820 (National Center for Advancing Translational Sciences (NCATS), 2012)
# Values joined by “and” are separate entries in the source; they are usually repeats but may differ in a detail not shown here. Identical values can stand only once. In all, about 340,000 compounds went through this assay and about 12,000 (3.5%) were called active. This list was built around the results that the source calls inconclusive (neither active nor inactive); the mix of calls is not that of the screen. The call rests on the fitted dose curve; in most records, active means well fitted inhibition curve with a large enough effect; inconclusive means small, poorly fitted or top-dose-only effect, or another doubt; inactive means no such curve, though single readings can be large or run the other way. Potencies beside an inconclusive call are fits to weak or partial responses and may not hold up.
# Assay: qHTS Assay for Inhibitors of Hepatitis C Virus (HCV)
# Conditions: Huh7.5.1 HCVcc-Cre (HCVcc is cell-culture hepatitis C virus) infection, luciferase reporter, 44 h; activity change, negative = inhibition: at 41.8 µM (top of the series) unless noted
# In short: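 Cells (1,000/well) were plated 4 h before compound, then infected with HCVcc-Cre virus (~0.5 moi). After 44 h further culture, infection was read as luciferase luminescence following a 15 min substrate incubation at room temperature.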
# On the % scale 0 is the no-effect control and ±100 the full control effect; potency means the concentration at half of the fitted maximal effect; tags describe the fitted curve by direction and shape.
SMILES,Potency,"activity change, negative = inhibition"
CC(=O)Oc1ccc(C2=Cc3ccc(OC(C)=O)cc3OC2C)cc1 (configuration not stated),"inconclusive: 12.6 µM [inhibitor, partial curve]",–
CCCCn1nc(C(=O)NNC(=O)c2ccncc2)c2ccccc2c1=O,–,inactive: 5.87%
Cc1cnc(CN2CCc3c([nH]c4ccccc34)C2C2CCCCC2)[nH]1 (configuration not stated),"inconclusive: 7.94 µM [inhibitor, partial curve]",–
COc1cccc(N2CCN(S(=O)(=O)c3ccc4c(c3)NC(=O)CS4)CC2)c1,"inconclusive: 31.6 µM [inhibitor, single point]",–
COc1ccccc1-c1oc2ccccc2c1-c1ccc2cc[nH]c2c1,active: 11.2 µM,–
Cc1ccc(Cl)cc1NC(=O)N(C)CCO,–,inactive: 4.78%
Cc1ccc(NC(=O)COC(=O)c2ccnn2C)cc1,"inconclusive: 2 µM [inhibitor, partial curve]",–
COC(=O)c1ccc(N2CCN(C)CC2)c([N+](=O)[O-])c1,–,inactive: -0.472%
COc1cc(C(=O)NCC(c2ccco2)N2CCCC2)ccc1OCc1c(C)noc1C (configuration not stated),"inconclusive: 22.4 µM [inhibitor, single point] and inconclusive: 31.6 µM [inhibitor, single point]",–
Cc1ccc2sc(N3CCN(C(=O)c4ccc([N+](=O)[O-])o4)CC3)nc2c1C,"inconclusive: 1.78 µM [inhibitor, full curve, poor fit]",–
O=C(Cn1ccccc1=O)Nc1ccc(Cl)c(S(=O)(=O)N2CCCCC2)c1,"inconclusive: 11.2 µM [inhibitor, partial curve]",–
Cc1ccc(C(=O)NCc2ccccn2)cc1S(=O)(=O)N1CCCCC1,–,inactive: 8.03%
O=C1CC2(CCN(C(=O)COc3ccc(Cl)cc3)CC2)Oc2ccccc21,"inconclusive: 22.4 µM [inhibitor, single point]",–
CN(C)CCCN(Cc1ccccc1)C(=S)Nc1ccc(SC(F)F)cc1,"inconclusive: 22.4 µM [inhibitor, single point]",–
CCOc1cc(NC(=O)c2ccco2)c(OCC)cc1NC(=O)CCC(=O)NCc1cccnc1,"inconclusive: 2 µM [inhibitor, single point]",–
CC(C)(C)c1ccc(OCCC(=O)Nc2cccc(S(=O)(=O)N3CCCC3)c2)cc1,"inconclusive: 5.01 µM [inhibitor, single point]",–
Cc1nc2sc(C(c3ccco3)N3CCN(c4ccc(F)cc4)CC3)c(O)n2n1 (configuration not stated),–,inactive: 17.3%
CCn1c(SCC(=O)c2c[nH]c3ccccc23)nnc1-c1cccs1,"inconclusive: 31.6 µM [inhibitor, single point]",–
COC(=O)c1c(NC(=O)c2ccccc2)sc(C(=O)c2ccccc2)c1C,"inconclusive: 3.16 µM [inhibitor, single point]",–
CC(C)(O)C(=O)NN(C(=O)c1ccccc1)c1ccc2ccccc2c1,"inconclusive: 5.62 µM [inhibitor, single point]",–
O=C1C=CC(=O)C(C2=C3C(=O)N(CCc4ccccc4)CC(=O)N3CCC2)=C1,"inconclusive: 31.6 µM [inhibitor, single point]",–
Cc1cccc(C)c1OCc1cc(C(=O)N2CC3C[C@@H]4CC2C[C@H](C3)C4)no1,"inconclusive: 11.2 µM [inhibitor, single point]",–
CC(=O)Nc1ccccc1/C=C/c1ccc2c(C)cc(C)c(O)c2n1,"inconclusive: 5.62 µM [inhibitor, single point]",–

SMILES,Potency,"activity change, negative = inhibition"
COc1ccc(C(C)NC(=O)c2ccccc2)cc1 (configuration not stated),–,inactive: 25.9%
CCOc1ccccc1N1CCN(C(=O)C(Sc2ccccc2)c2ccccc2)CC1 (configuration not stated),–,inactive: -12.1%
COc1ccccc1C1=CC(=O)C[C@H](c2ccc(Cl)cc2)C1,"inconclusive: 22.4 µM [inhibitor, single point]",–
CC1=CC(C)(C)N(C(=O)CN2C(=O)c3ccccc3C2=O)c2ccc(C)cc21,"inconclusive: 3.16 µM [inhibitor, partial curve]",–
N#Cc1nc(Cc2cccc3ccccc23)oc1NCc1ccc2c(c1)OCO2,"inconclusive: 10 µM [inhibitor, partial curve]",–
CC(C)(C)C(=O)N1Cc2cnnn2-c2ccccc2C1C#N (configuration not stated),"inconclusive: 3.16 µM [inhibitor, single point]",–
O=C(/C=C/Nc1ccccc1F)c1ccc(Br)cc1,"inconclusive: 3.16 µM [inhibitor, single point]",–
Cc1ccc2cc3c(nc2c1)N(Cc1ccco1)CC3,"inconclusive: 22.4 µM [inhibitor, single point]",–
CCCCCCCCNS(=O)(=O)CCNC1CC1,–,inactive: -25.8%
COc1ccc(C2CC(c3ccccc3Cl)=NN2c2ccc(S(N)(=O)=O)cc2)cc1 (configuration not stated),"inconclusive: 11.2 µM [inhibitor, single point]",–
O=C(c1ccccc1Cc1ccccc1)N1CCN(S(=O)(=O)c2ccccc2Br)CC1,"inconclusive: 3.16 µM [inhibitor, partial curve, poor fit]",–
S=C(Nc1ccccc1)N1CCN(C(=S)c2ccccc2)CC1,–,inactive: 4.17%
CCCCc1ccc(NC(=O)Nc2cc(C)nn2C)cc1,"inconclusive: 3.55 µM [inhibitor, full curve, poor fit]",–
Cc1cc(-c2ccc(C)c(S(=O)(=O)NCC3CCN(Cc4cccc(F)c4)CC3)c2)on1,"inconclusive: 31.6 µM [inhibitor, single point]",–
CN(CC(=O)O/N=C(\N)c1ccc(Br)cc1)S(=O)(=O)c1ccccc1,"inconclusive: 31.6 µM [inhibitor, single point]",–
Fc1ccc(N/N=C(/c2ccccc2)c2ccccn2)cc1,"inconclusive: 0.501 µM [inhibitor, full curve, poor fit]",–
CSC1=NC(NCCCO)c2c(sc3c2CC(C)(C)OC3)N1 (configuration not stated),–,inactive: -25.1%
CCOC(=O)c1c(NC(=O)Cn2ccsc2=N)sc(C)c1C,"inconclusive: 7.94 µM [inhibitor, partial curve]",–
CC(=O)c1ccc(Nc2nc(-c3ccccc3)nc3ccccc23)cc1,"inconclusive: 22.4 µM [inhibitor, single point]",–
Cc1ccc(NCc2ccncc2)c(Br)c1,"inconclusive: 11.2 µM [inhibitor, single point]",–
OCC1=C[C@@H](O)[C@@H]2C=CO[C@@H](O[C@@H]3O[C@H](CO)[C@@H](O)[C@H](O)[C@H]3O)[C@H]12,–,inactive: 51.3%
Cc1c(Cc2ccc3c(c2)OCO3)sc(NC(=O)c2cccc3ccccc23)c1C(N)=O,"inconclusive: 22.4 µM [inhibitor, single point]",–
Cc1cccc(NC(=S)N/N=C/c2cccn2Cc2ccc(F)cc2)c1,"inconclusive: 31.6 µM [inhibitor, single point]",–

SMILES,Potency,"activity change, negative = inhibition"
O=C(N/C(=C\c1cccc([N+](=O)[O-])c1)C(=O)N1CCCCC1)c1cccs1,"inconclusive: 31.6 µM [inhibitor, single point]",–
CCN(CC)c1ncnc2c1cnn2Cc1ccc(Cl)cc1,"inconclusive: 15.8 µM [inhibitor, single point]",–
CN(CC(=O)Nc1cccc(F)c1)C(=O)c1cccc(S(=O)(=O)N2CCN(c3ccccc3)CC2)c1,"inconclusive: 31.6 µM [inhibitor, single point]",–
O=C1Cc2c([nH]c3ccc([N+](=O)[O-])cc23)-c2ccccc2N1,"inconclusive: 2 µM [inhibitor, full curve]",–
O=C(Nc1nc(-c2ccco2)c(-c2ccco2)s1)c1cnccn1,"inconclusive: 14.1 µM [inhibitor, single point]",–
Cc1cc(C)cc(C(=O)NCC(=O)OCC(=O)NCC(F)(F)F)c1,–,inactive: -5.97%
COc1ccc(/C=C/C(=O)N(C)C2CCCCC2)cc1Br,–,inactive: -4.75%
CC(=O)Nc1ccc(S(=O)(=O)N(c2cccnc2)S(=O)(=O)c2ccc(NC(C)=O)cc2)cc1,"inconclusive: 22.4 µM [inhibitor, single point]",–
CC(=O)c1c(C)[nH]c(C(=O)OCc2csc(CC(=O)Nc3ccccc3C)n2)c1C,active: 4.47 µM,–
O=C(NC(=O)c1cc(OCC(F)(F)F)ccc1OCC(F)(F)F)Nc1ccccc1,"inconclusive: 12.6 µM [inhibitor, partial curve]",–
CCn1nc(NC(=O)c2ccncc2)c2cc3cccc(C)c3nc21,"inconclusive: 3.55 µM [inhibitor, full curve, poor fit]",–
CC1=NN(c2ccccc2)C(=O)/C1=C\C=C1\N(C)c2ccccc2C1(C)C,"inconclusive: 15.8 µM [inhibitor, single point]",–
O=C(NC(=Nc1nc2ccccc2o1)NC(=O)c1ccccc1)c1ccccc1,–,inactive: 4.11%
O=C(COc1ccccc1Br)Nc1ccc2c(c1)OCCCO2,–,inactive: -17.6%
COc1ccccc1CN1CC(C(=O)NCCCc2ccc(F)cc2)CCC1=O (configuration not stated),–,inactive: -13.4%
COc1ccc(CCNC(=O)Cc2ccccc2)cc1OC,–,inactive: 2.56%
Cc1c(C(=O)Nc2ccc(C(=O)Nc3ccccc3)cc2)cccc1[N+](=O)[O-],"inconclusive: 1.26 µM [inhibitor, full curve]",–
Cc1ccc(NC(=O)c2ccc3c(c2)[nH]c(=O)n3C(C)C)cc1,"inconclusive: 3.55 µM [inhibitor, partial curve]",–
COc1ccc(CNC(=O)[C@H](C)NC(=O)C2CCN(C(=O)[C@@H](N)Cc3ccccc3)CC2)cc1,"inconclusive: 0.501 µM [inhibitor, partial curve, poor fit]",–
CC(=O)Nc1cccc(C(=O)OCC(=O)N(c2ccccc2)C2CCS(=O)(=O)C2)c1 (configuration not stated),"inconclusive: 5.01 µM [inhibitor, single point]",–
CCOc1ccc(N(CC(=O)Nc2cc(C)cc(C)c2)S(C)(=O)=O)cc1,"inconclusive: 22.4 µM [inhibitor, single point]",–
